{"source": "the RNAGym collection of RNA variant scans (doi:10.7554/elife.90254)", "parents": {"B1": {"name": "LINE1-full (parent)", "chain": "UACGUAGGUGGUUUUCCCCUGAUAGUGCUAAGGGGGCCUGGAAGUUUGGACUGGGCAGAGCUCAACACAGCGUGGCAAAGUGGCUGUGGCUAGACUGCCUCUCUGGAUUCCUCGUCACUCAGCAGGGCAUCUCUGAGAGAAAUGCC"}}, "note": "The source gives no read counts; variants with many changes may rest on few reads.", "data": [{"variants_of": "B1", "experiment": "self-cleavage, relative activity (ratio to wild type); higher = more cleavage; in vitro, sequencing; the parent is a self-cleaving ribozyme", "values": [{"variant": "C37U U39C A43G", "self-cleavage": 0.83}, {"variant": "G36U U87A G89A", "self-cleavage": 0.04}, {"variant": "U39C A67U U96C A136G", "self-cleavage": 0}, {"variant": "G35U A64G U85C", "self-cleavage": 0.13}, {"variant": "C38U A42C A43G A129G A138G", "self-cleavage": 1.72}, {"variant": "G34A A57G A65U", "self-cleavage": 0.16}, {"variant": "U39A U46A U108C", "self-cleavage": 1.55}, {"variant": "C38U C99A A141G", "self-cleavage": 1}, {"variant": "U39C A65G U104C", "self-cleavage": 0}, {"variant": "U39A U81G A121U", "self-cleavage": 2.1}, {"variant": "C37U A50G U134C", "self-cleavage": 0.7}, {"variant": "U39A U62G C63U A65C", "self-cleavage": 0.15}, {"variant": "G33U U47A A65G U119A", "self-cleavage": 0}, {"variant": "G34A G40U U73A U115A A121G", "self-cleavage": 1.32}, {"variant": "G33U U46A A124U", "self-cleavage": 1.44}, {"variant": "U39A U81C G88A", "self-cleavage": 0.09}, {"variant": "U39A U87A C90U A121U", "self-cleavage": 0.02}, {"variant": "C38U U52A U102C", "self-cleavage": 1.18}, {"variant": "C37U U39A U73C A140G", "self-cleavage": 1.47}, {"variant": "G35U A94G A142U", "self-cleavage": 0.23}, {"variant": "U39A U81A U115C C116U A138U", "self-cleavage": 2.33}, {"variant": "C38U A65U A107G A141G U143C", "self-cleavage": 0.25}, {"variant": "C37G A79U A117U U143A", "self-cleavage": 1.99}, {"variant": "C37G A77U U108A", "self-cleavage": 1.27}, {"variant": "G36A A59U U115A", "self-cleavage": 0.58}, {"variant": "G36A U119A A121G", "self-cleavage": 1.15}, {"variant": "U39A A79U U85A", "self-cleavage": 0.08}, {"variant": "U39A A79G G89U C98U U134C", "self-cleavage": 0.02}, {"variant": "U39A A67G G74A A121G", "self-cleavage": 0.27}, {"variant": "U39A A77U U102C G122U", "self-cleavage": 1.25}, {"variant": "G35C A65G A79G", "self-cleavage": 0}, {"variant": "G36C A57U A69G U96A C110U", "self-cleavage": 0.1}, {"variant": "U39C A64U A77U A117U", "self-cleavage": 0.08}, {"variant": "G35A U73A U100C", "self-cleavage": 2.28}, {"variant": "C38A U62A C120U", "self-cleavage": 0.04}, {"variant": "G34A U96A A141G", "self-cleavage": 0.07}, {"variant": "C38A U73C U81C U115C", "self-cleavage": 0}, {"variant": "G34U A92G U143A", "self-cleavage": 0.08}, {"variant": "G35A U52C U62A A142G", "self-cleavage": 0.05}, {"variant": "U39C A42G U62A U104A U119A", "self-cleavage": 0.24}, {"variant": "U39A A43G U104A", "self-cleavage": 0.45}, {"variant": "G33U U52G U108C", "self-cleavage": 1.36}, {"variant": "C37A A43G A121C", "self-cleavage": 1.57}, {"variant": "U39A A59G A142G", "self-cleavage": 0.11}, {"variant": "C37U U39A A67U A78C", "self-cleavage": 0.09}, {"variant": "G36C G126U A142G", "self-cleavage": 1.94}, {"variant": "G36A U73C A138G", "self-cleavage": 1.23}, {"variant": "U39A U47G A50G A57C G74A", "self-cleavage": 0.05}, {"variant": "U39C A42G U47C U73A C120U A121U", "self-cleavage": 2.61}, {"variant": "G34A U73G A92G A129G", "self-cleavage": 0.08}, {"variant": "G34U A42G U134C U143A", "self-cleavage": 1.09}, {"variant": "U39C A59G A78G A141G", "self-cleavage": 0.1}, {"variant": "U39C A43G U102C A138G", "self-cleavage": 1.31}, {"variant": "G34U U46A U119A", "self-cleavage": 1.22}, {"variant": "G35A A59G A92G U143C", "self-cleavage": 0}, {"variant": "G36A A57U U96C", "self-cleavage": 0}, {"variant": "U39A A42U A77G", "self-cleavage": 1.65}, {"variant": "U39A U62A A141G", "self-cleavage": 0.04}, {"variant": "C37U C90U A121G", "self-cleavage": 0.06}, {"variant": "G35A U47C G48A U108C C133A", "self-cleavage": 0.98}, {"variant": "G36U A50G U81C", "self-cleavage": 0.49}, {"variant": "U39A U85A A140G A142G", "self-cleavage": 0}, {"variant": "U39A A77U G80A U143A", "self-cleavage": 1.44}, {"variant": "C37U U47C A79G A129U", "self-cleavage": 1.29}, {"variant": "U39A A42G G70A A136G A142U", "self-cleavage": 0.14}, {"variant": "U39A U47A A138G", "self-cleavage": 1.17}, {"variant": "C38A U73C U102A A136U A140G", "self-cleavage": 2.13}, {"variant": "G34U U62C U91G U115C C146U", "self-cleavage": 0.64}, {"variant": "U39A A42G A57U U73C U81C U109A U134C", "self-cleavage": 0}, {"variant": "C37A U62C U102A", "self-cleavage": 0.03}, {"variant": "G35A U96A A141G", "self-cleavage": 0.01}, {"variant": "C37U A57G A69U A124U", "self-cleavage": 0.06}, {"variant": "C37U A77G U109C", "self-cleavage": 1.89}, {"variant": "U39A U62C A65G", "self-cleavage": 0}, {"variant": "G36C A64U A138G", "self-cleavage": 0.54}, {"variant": "G36C U62C G88A U132C", "self-cleavage": 0.03}, {"variant": "C37A A67G C133A A136G", "self-cleavage": 0.14}, {"variant": "G34U A77U U108A U109A U115C", "self-cleavage": 1.44}, {"variant": "G34A A142G U143C", "self-cleavage": 1.84}, {"variant": "C37G C90U U100C", "self-cleavage": 0.16}, {"variant": "C38U U52A U81A A121G A124G", "self-cleavage": 1.81}, {"variant": "U39A U46C U87C U130C", "self-cleavage": 0.23}, {"variant": "U39A A65G A107U U115C", "self-cleavage": 0.31}]}]}
